PubChem BioAssay AID1476 (National Center for Advancing Translational Sciences (NCATS), 2009)
Hit rate of the full screen: of about 200,000 compounds, about 4,500 (2.2%) were called active. The shares of active, inactive and inconclusive entries below differ from those in the screen. Calls follow the shape of the dose curve; as a rule, active = well fitted inhibition curve with a large enough effect; inconclusive = small, poorly fitted or top-dose-only effect, or effect the other way; inactive = flat fitted curve, though single readings scatter. A potency beside an inconclusive call is a rough fit, not a confirmed value.

What follows are molecules tested against Cruzipain (Trypanosoma cruzi) (UniProt P25779) (assay: qHTS Assay for Promiscuous and Specific Inhibitors of Cruzain (without detergent)). Conditions: purified cruzain, Z-FR-AMC fluorescence, no detergent.
Chain of UniProt P25779 (P25779 whole entry, looked up): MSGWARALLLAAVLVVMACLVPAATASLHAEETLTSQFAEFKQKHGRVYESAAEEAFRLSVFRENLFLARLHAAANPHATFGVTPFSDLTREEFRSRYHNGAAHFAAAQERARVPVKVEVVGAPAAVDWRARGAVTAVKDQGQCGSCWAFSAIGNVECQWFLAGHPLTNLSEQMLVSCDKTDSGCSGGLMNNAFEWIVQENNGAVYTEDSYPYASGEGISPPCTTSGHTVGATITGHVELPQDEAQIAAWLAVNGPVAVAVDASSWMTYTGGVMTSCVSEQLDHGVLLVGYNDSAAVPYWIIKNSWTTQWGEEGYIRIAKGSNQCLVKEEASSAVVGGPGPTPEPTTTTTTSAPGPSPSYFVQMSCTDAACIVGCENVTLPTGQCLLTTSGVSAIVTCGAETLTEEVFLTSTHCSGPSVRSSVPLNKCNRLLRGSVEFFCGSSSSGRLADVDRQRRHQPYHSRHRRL
In short: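 Purified cruzain at 1.5 nM, pre-incubated 15 min with compound at room temperature in 100 mM sodium acetate pH 5.5, 5 mM DTT, 0.00005% Triton X-100. Reaction started with 2 uM Z-FR-AMC; AMC fluorescence increase over 60 s gives rate.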
Also: nearly all actives have a fitted effect of over 40% in size.
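For max response, negative = inhibition in this document: plate controls were enzyme without inhibitor for no effect and buffer without enzyme for full effect.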
Potency is read from the fitted curve at half-maximal effect; tags tell the direction and shape of the fitted curve.

Row | Compound | Potency | max response, negative = inhibition
1 | O=[N+]([O-])c1ccc(N2CCN(c3ccccc3F)CC2)c(S(=O)(=O)N2CCOCC2)c1 | inconclusive: 31.6 µM [inhibitor, single point] | –
2 | CCCSc1nc2sc3c(c2c(=O)n1-c1ccc(C)c(Cl)c1)CCN(C(C)=O)C3 | inconclusive: 12.6 µM [activator, partial curve] | –
3 | C/C(=N\Nc1cccc2ccccc12)c1c(O)n(Cc2ccccc2)c(=O)[nH]c1=O | active: 10 µM | –
4 | O=C(O)CSc1ccc([N+](=O)[O-])cc1[N+](=O)[O-] | – | inactive: 2.09%
5 | CC(C)c1ccc(OCC(=O)NCC(c2ccc(Cl)cc2)N2CCOCC2)cc1 (centres undefined) | inconclusive: 25.1 µM [activator, single point] | –
6 | O=[N+]([O-])c1c(NCCCO)cc(N2CCN(Cc3ccc4c(c3)OCO4)CC2)c2nonc12 | inconclusive: 39.8 µM [activator, single point] | –
7 | CCCn1c(NC(=S)Nc2ccccc2)nc2ccccc21 | – | inactive: 6.32%
8 | CCCCCOC(=O)c1c(N)n(CCOC)c2nc3ccccc3nc12 | inconclusive: 25.1 µM [activator, single point] | –
9 | COc1ccc(OC)c(CNC(=O)CSc2c3c(nc4cc(Cl)ccc24)CCCC3)c1 | inconclusive: 39.8 µM [inhibitor, single point] | –
10 | CCN(CCCNC(=O)c1nn(-c2ccc(OC)c(Cl)c2)c(=O)c2c1c1ccccc1n2C)c1ccccc1 | inconclusive: 3.98 µM [inhibitor, single point] | –
11 | CCSc1nnc(NC(=O)C2Cc3ccccc3CN2S(=O)(=O)CC)s1 (centres undefined) | – | inactive: -6.07%
12 | CN(C)c1nc(N(C)C)nc(N(C)C)n1 | – | inactive: -2.19% [middle of 4 runs]
13 | Cc1nnc(NC(=O)Nc2cccc(Cl)c2)s1 | – | inactive: -0.477%
14 | CCOC(=O)c1c(NC(=O)CSc2cn(CC)c3ccccc23)sc2c1CCC2 | inconclusive: 31.6 µM [inhibitor, single point] | –
15 | CCS(=O)(=O)c1cccc(C(=O)Nc2ccc(-c3nc4ccccc4s3)c(O)c2)c1 | – | inactive: 2.14%
16 | Cc1cccc(NC(=O)Cn2c(=O)c3cccn3c3ccccc32)c1C | inconclusive: 31.6 µM [inhibitor, single point] | –
17 | COc1ccc(-c2csc(-c3c(N)c(C(=O)c4ccccc4)n4ccccc34)n2)cc1OC | – | inactive: -12.2%
18 | c1ccc2c(c1)nc(Nc1ccc3c(c1)OCO3)c1nnnn12 | active: 25.1 µM | –
19 | COc1ccccc1/C=C(/CC(=O)NCc1ccc2c(c1)OCO2)c1nc2ccccc2s1 | active: 15.8 µM | –
20 | O=[N+]([O-])CC(=Nc1ccc(Cl)cc1)N/N=C\c1oc(O)c2ccccc12 | inconclusive: 15.8 µM [inhibitor, partial curve, poor fit] | –
21 | Cc1ccccc1NC(=O)c1c(C)nc(SCC(=O)OCc2ccccc2)c(C#N)c1-c1ccc(F)cc1 | inconclusive: 39.8 µM [inhibitor, single point] | –
22 | CCN(CC)C(=O)CSc1nc2cc3c(cc2c(=O)n1CCCC(=O)NCc1ccc(OC)cc1)OCO3 | – | inactive: -7.39%

Row | Compound | Potency | max response, negative = inhibition
23 | CCc1ccc(CN(Cc2cn[nH]c2-c2ccc(OC)cc2)C(=O)Nc2ccc(Br)cc2)cc1 | – | inactive: 0.808%
24 | COc1cc(C2c3cc4c(cc3C(O[C@@H]3OC5COC(c6cccs6)OC5C(O)C3O)C3COC(=O)C23)OCO4)cc(OC)c1O (some centres undefined) | inconclusive: 10 µM [activator, partial curve] | –
25 | COc1ccc(-c2ccc(-c3cc(=O)oc4cc(OC)c(OC)c(OC)c34)cc2)cc1OC | inconclusive: 39.8 µM [activator, single point] | –
26 | CCOCCCn1c(C)nc2c(c1=O)c1nc3ccccc3nc1n2-c1ccc(C)cc1 | inconclusive: 12.6 µM [activator, partial curve] | –
27 | CCOC(=O)c1c(NC(=O)c2ccc(S(=O)(=O)N(CC)CC)cc2)sc2c1CCCCC2 | – | inactive: 8.24%
28 | COc1ccccc1N1CCN(c2nc(C)nc3c2oc2ccccc23)CC1 | inconclusive: 39.8 µM [activator, single point] | –
29 | CCC1=C/C(=C\c2ccc3c(c2)OCO3)C(=O)S1 | inconclusive: 15.8 µM [inhibitor, partial curve] | –
30 | O=C(CCN1CCc2ccccc2C1)c1ccc2c(c1)OCCO2 | inconclusive: 15.8 µM [inhibitor, partial curve] | –
31 | CCN(CC)c1ccc(NS(=O)(=O)c2cc(-c3cc(C)no3)ccc2C)c(C)c1 | inconclusive: 5.01 µM [inhibitor, full curve, poor fit] | –
32 | CCOC(=O)N1CCC(NC(=O)CSCc2nc(-c3cccc(OC)c3)oc2C)CC1 | inconclusive: 31.6 µM [activator, single point] | –
33 | Cc1c(Cl)cccc1-c1ccc(/C=C(\C#N)c2nc3ccccc3[nH]2)o1 | inconclusive: 5.01 µM [inhibitor, full curve] | –
34 | Cc1cc(N2C(=O)CC(N3CCN(C(c4ccccc4)c4ccccc4)CC3)C2=O)no1 (centres undefined) | inconclusive: 39.8 µM [activator, single point] | –
35 | NC(=O)CSc1nnc(Cc2csc(Nc3ccc(F)cc3)n2)n1Cc1ccccc1 | inconclusive: 39.8 µM [activator, single point] | –
36 | CCC1=C2CC[C@H]3C(=O)NC(=O)[C@H]3[C@H]2[C@@]2(C)C(=NCC(=O)OC)OC(=O)N2C1=O | – | inactive: -2.18%
37 | COc1ccc(N2CCN(C(=O)c3cn(C)c(=O)c4c3c3ccccc3n4C)CC2)cc1 | inconclusive: 31.6 µM [activator, single point] | –
38 | O=Cc1cc2ccccc2nc1SCc1ccc(Cl)c(Cl)c1 | inconclusive: 39.8 µM [inhibitor, single point] | –
39 | COc1cc2c(cc1NC(=O)COC(=O)[C@@H](NC(=O)c1ccccc1)C(C)C)oc1ccccc12 | active: 31.6 µM | –
40 | Cc1ccccc1-c1noc(-c2nnn(-c3ccccc3C)c2N)n1 | – | inactive: 5.9%
41 | Cc1ccc(Nc2cc(C)nn2-c2nc(C)cc(=O)[nH]2)cc1 | inconclusive: 39.8 µM [activator, single point] | –
42 | O=C(CN1C(=O)CCSc2ccccc21)Nc1ccc(C(F)(F)F)cc1 | – | inactive: -13.2%
43 | COc1ccc(OC)c(NC(=O)Cn2c(=O)cc(C)c3c(C)nn(-c4cccc(Cl)c4C)c32)c1 | – | inactive: -2.04%
44 | Cc1ccc(NC(=S)NC(NC(=O)C(C)(C)C)C(Cl)(Cl)Cl)c(C)c1 (centres undefined) | – | inactive: 10%

Row | Compound | Potency | max response, negative = inhibition
45 | Cc1ccc(OCCn2cc(/C=N/NC(=O)c3ccncc3)c3ccccc32)cc1 | inconclusive: 39.8 µM [activator, single point] | –
46 | Cc1ccc(NC(=S)N/N=C/c2c(C)nn(-c3ccccc3)c2N2CCCC2)cc1 | inconclusive: 31.6 µM [inhibitor, single point] | –
47 | Cc1ccc(S(=O)(=O)c2nnn3c2nc(N2CCOCC2)c2sccc23)cc1C | inconclusive: 39.8 µM [activator, single point] | –
48 | Cc1ccc(Nc2sc(C(=O)c3ccc(F)cc3)c(N)c2S(=O)(=O)c2ccc(C)cc2)cc1 | inconclusive: 25.1 µM [inhibitor, single point] | –
49 | COc1ccc(C(=O)Nc2nc3n(n2)C(c2ccc(Cl)cc2)C=C(c2ccccc2)N3)cc1OC (centres undefined) | inconclusive: 20 µM [activator, single point] | –
50 | Cc1ccc(C)c(CN2C(=O)c3ccccc3S(=O)c3ccc(C(=O)N4CCOCC4)cc32)c1 (centres undefined) | inconclusive: 31.6 µM [activator, single point] | –
51 | Cc1ccc(NC(=O)c2ccc(NCC3CCCO3)c([N+](=O)[O-])c2)cc1Cl (centres undefined) | inconclusive: 39.8 µM [activator, single point] | –
52 | Cc1cc(O)c(/C=N/Nc2ccc(Cl)cc2)c(=O)o1 | inconclusive: 31.6 µM [inhibitor, single point] | –
53 | CC(C)OC(=O)c1c(N)n(Cc2ccco2)c2nc3ccccc3nc12 | active: 12.6 µM | –
54 | CC(Sc1nc(=O)cc(N)n1CCc1ccccc1)C(=O)Nc1cccc(Cl)c1 (centres undefined) | inconclusive: 31.6 µM [inhibitor, single point] | –
55 | CCn1c(C)nc2cc(-c3nnc(-c4c(-c5ccccc5)noc4C)o3)ccc21 | inconclusive: 31.6 µM [activator, single point] | –
56 | COc1ccccc1NC(=O)c1ccccc1NC(=O)c1cc(Cl)ccc1NC(=O)c1ccco1 | active: 15.8 µM | –
57 | CCOc1c2ccc(C(=O)NCc3cc(C(F)(F)F)cc(C(F)(F)F)c3)cc2nn1C | inconclusive: 39.8 µM [activator, single point] | –
58 | O=C(Nc1ccc2nc(SCC(=O)N3CCCc4ccccc43)sc2c1)c1ccc(Cl)cc1 | active: 10 µM | –
59 | O=C(Nc1ccc([N+](=O)[O-])cn1)c1cc(-c2cccc(Br)c2)nc2ccccc12 | inconclusive: 31.6 µM [inhibitor, single point] | –
60 | O=c1c(-c2cccc(F)c2)nc2cncnc2n1Cc1ccccc1Cl | – | inactive: -15.7%
61 | CNc1oc(-c2cccs2)nc1C#N | inconclusive: 39.8 µM [inhibitor, single point] | –
62 | CCOc1ccc(Nc2oc(-c3cccc(Cl)c3)nc2C#N)cc1 | inconclusive: 39.8 µM [inhibitor, single point] | –
63 | COc1cc(OC)c(NC(=O)c2ccc3c(c2)N(Cc2ccc(C)cc2)CCS3)cc1Cl | active: 7.94 µM | –
64 | COc1cc(/C=N/NC(=S)N/N=C/c2cc(OC)c(OC)c(OC)c2)cc(OC)c1OC | inconclusive: 39.8 µM [inhibitor, single point] | –
